According to PubChem BioAssay AID504832 (National Center for Advancing Translational Sciences (NCATS), 2011):
Hit rate of the full screen: of about 310,000 compounds, about 18,000 (5.8%) were called active. Inconclusive means that the source gave no clear call. Such entries were picked first, then a sample of the others. Calls come from the whole dose curve; as a rule, active = well fitted inhibition curve with a large enough effect; inconclusive = small, poorly fitted or top-dose-only effect, or another doubt; inactive = no such curve, though single readings can be large or run the other way. Potencies of inconclusive entries are left out as doubtful fits.

Experiment: Primary qHTS for delayed death inhibitors of the malarial parasite plastid, 48 hour incubation
Settings: P. falciparum luciferase growth in erythrocytes; series mostly up to 28.7 µM
How it was run: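 Growth was read as firefly luciferase luminescence after a 48 h, 37 C, 5% CO2 exposure of compounds to reporter-bearing P. falciparum cultures (0.1% parasitemia, 2% hematocrit final) in Albumax-supplemented RPMI 1640.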
Potency is the fitted concentration of half-maximal effect; tags give direction and shape of the fitted curve.

| SMILES | Potency |
| --- | --- |
| N#Cc1ccccc1NC(=O)CNc1cc(S(=O)(=O)N2CCOCC2)ccc1NCC1CCCO1 (centres undefined) | inconclusive [inhibitor, single point] |
| CCOC(=O)N1CCN(C(=O)CN2C(=O)NC(C)(c3ccc4ccccc4c3)C2=O)CC1 (centres undefined) | active: 11.7 µM |
| CC1CCCN(C(=O)c2ccc(NS(=O)(=O)c3cccc([N+](=O)[O-])c3)cc2)C1 (centres undefined) | inconclusive [inhibitor, single point] |
| Cc1c(C(=O)Nc2ccc(N3CCOCC3)cc2)cccc1[N+](=O)[O-] | inactive |
| CCn1c(SCC(=O)Nc2cc(C)on2)nc2c(c1=O)SCC2 | inconclusive [inhibitor, full curve, poor fit] |
| Cc1ccc(C)c2nc3sc(C(=O)N4CCCc5ccccc54)c(N)c3cc12 | inconclusive [inhibitor, partial curve] |
| COc1ccc(C(=O)NOCc2ccccc2)cc1 | inactive |
| Fc1ccc2c(c1)nnn2C1CCN(Cc2ccccc2)CC1 | inconclusive [inhibitor, single point] |
| COC(=O)CN1C(=O)Nc2ccc(Cl)cc2C1c1ccccc1 (centres undefined) | inconclusive [inhibitor, partial curve, poor fit] |
| CCN1CCN(c2cc(C)c3cc(NC(=O)c4cccs4)ccc3n2)CC1 | active: 2.08 µM |
| Cc1cccc(NS(=O)(=O)c2c(C)noc2C)c1 | inactive |
| Cc1noc(C)c1COC(=O)CCCc1c[nH]c2ccccc12 | active: 11.7 µM |
| CCCCN(CC(=O)Nc1c(C)cccc1CC)C(=O)SCC | inconclusive [inhibitor, single point] |
| CCCSc1nc(N)c2c3c(sc2n1)CN(C)CC3 | inconclusive [inhibitor, partial curve] |
| COc1ccc(OC)c(S(=O)(=O)N2CCCC(C(=O)NCCc3ccccc3)C2)c1 (centres undefined) | inconclusive [inhibitor, partial curve, poor fit] |
| COc1ccc(C2NC(=S)NC3=C2CCCC3=C2SCCS2)cc1 (centres undefined) | inconclusive [inhibitor, single point] |
| CC(C)C(NC(=O)/C(=C/c1ccco1)NC(=O)c1ccc(Br)o1)C(=O)O (centres undefined) | inactive |
| CC(OC(=O)c1ccccc1Oc1ccccc1)C(=O)NC1CC1 (centres undefined) | inconclusive [inhibitor, partial curve, poor fit] |
| Cc1[nH]n2c(=O)c3c(nc2c1-c1ccccc1)CCCC3 | inconclusive [inhibitor, single point] |
| CC1CCN(C(=O)c2cc(F)c(F)cc2Cl)CC1 | inactive |
| COc1ccc(-c2nn3c(-c4ccc(F)cc4)nnc3s2)cc1 | inconclusive [inhibitor, partial curve, poor fit] |
| O=C(O)COCCN1CCN([C@@H](c2ccccc2)c2ccc(Cl)cc2)CC1 | inconclusive [inhibitor, single point] |
| COC(=O)c1ccccc1NC(=O)CN1C(=O)C2CCCN2c2ncc(Cl)cc21 (centres undefined) | active: 2.94 µM |

| SMILES | Potency |
| --- | --- |
| COc1ccc(CCNC(=O)CCc2cn(C)c3ccccc23)c(OC)c1OC | active: 11.7 µM |
| COc1ccc(N=C2SCC(=O)N2CCc2ccc(OC)c(OC)c2)cc1 | inconclusive [inhibitor, single point] |
| S=c1nc(C23CC4CC(CC(C4)C2)C3)nc2sccn12 | inconclusive [inhibitor, single point] |
| COc1ccc(CCNC(=O)Cc2cc(OC)c(OC)cc2Br)cc1OC | inconclusive [inhibitor, partial curve, poor fit] |
| O=S(=O)(c1ccc(F)c(F)c1F)N1CCN(C(=S)NC2CC3CCC2C3)CC1 (centres undefined) | inconclusive [inhibitor, full curve] |
| COc1ccc(C(=O)O/N=C(\N)c2ccc(OC)c(OC)c2)cc1 | inconclusive [inhibitor, single point] |
| Cc1ccc(NC(=O)Cc2nnc(SCC(=O)Nc3ccc(N4CCOCC4)cc3)n2C)cc1 | inactive |
| CN(C)c1oc(-c2cccs2)nc1C#N | inactive |
| Cc1cc(N2CCC(C)CC2)nc(-c2ccccc2O)n1 | inactive |
| Cc1ccc(Cl)cc1NC(=S)NN | inconclusive [inhibitor, single point] |
| COc1cc2[nH]cc(C(=O)NCCc3ccccc3)c(=O)c2cc1OC | inconclusive [inhibitor, partial curve] |
| Cc1ccc(S(=O)(=O)Nc2c(C)nn(C)c2C)c(C)c1 | inconclusive [inhibitor, single point] |
| Cc1cccc(Oc2nc(-c3ccccc3)cc(C)c2S(C)(=O)=O)c1C | inconclusive [inhibitor, partial curve] |
| O=C(CN1CCCC1)Nc1sc2c(c1C(=O)Nc1ccccc1)CCCC2 | inconclusive [inhibitor, single point] |
| O=C(O)/C=C/c1cnc2ccccc2n1 | inactive |
| Cc1ccc(C(=O)NCC(=O)NCCSc2ccc(Br)cc2)cc1 | inactive |
| Cn1c(=O)cc(SCC(=O)NCCCN2CCN(c3ccc(F)cc3)CC2)c2ccccc21 | inconclusive [inhibitor, single point] |
| COc1ccc(OCC(O)CN(C2CCCCC2)C2CCCCC2)cc1 (centres undefined) | inconclusive [inhibitor, partial curve, poor fit] |
| COc1ccc2c(c1OC)C(=O)N1N=C(c3ccc(Cl)cc3)CC21 (centres undefined) | active: 5.86 µM |
| NC(=O)c1ccc(NC(=O)CCC(=O)N2CCN(S(=O)(=O)c3ccc(Cl)cc3)CC2)cc1 | inconclusive [inhibitor, single point] |
| c1ccc(Cn2nnnc2C(c2cccs2)N2CCCCCC2)cc1 (centres undefined) | inconclusive [inhibitor, partial curve, poor fit] |
| Cc1ccc(S(=O)(=O)N(C)C)cc1-n1c(SCC(=O)Nc2ccc(F)cc2)nc2ccccc2c1=O | active: 9.28 µM |
| COc1ccc(C(=O)N2CCC(n3nccc3NC(=O)C3CC3)CC2)cc1F | inconclusive [inhibitor, partial curve] |

| SMILES | Potency |
| --- | --- |
| CC1(c2ccc3ccccc3c2)NC(=O)N(CC(=O)N2CCN(c3ccccc3O)CC2)C1=O (centres undefined) | inconclusive [inhibitor, partial curve] |
| O=C(NCCN1CCCCC1)Nc1cccc(C(F)(F)F)c1 | inconclusive [inhibitor, partial curve, poor fit] |
| CCOC(=O)C1CCCN(c2c(NCCc3ccc(C)cc3)c(=O)c2=O)C1 (centres undefined) | inconclusive [inhibitor, partial curve] |
| O=c1cc(CN2CCN(c3ccc(O)cc3)CC2)nc2scc(-c3ccccc3)n12 | inconclusive [inhibitor, partial curve, poor fit] |
| Cc1ccccc1-c1nc(CS(=O)CC(=O)NC(C)CCc2ccccc2)c(C)o1 (centres undefined) | inconclusive [inhibitor, partial curve] |
| Cc1cc(S(=O)(=O)N2CCCC(N(C)CCc3ccccn3)C2)c(C)s1 (centres undefined) | inconclusive [inhibitor, partial curve, poor fit] |
| CCS(=O)(=O)c1ccc(C(=O)Nc2ccccc2OC)c(Cl)c1Cl | inactive |
| Cc1ccc(O)c(C(=O)c2cnc(/N=C(\N)N(C)C)nc2)c1 | inactive |
| COc1ccccc1-n1nnnc1S(=O)(=O)Cc1ccc(Cl)cc1 | inconclusive [inhibitor, single point] |
| CCCCOc1cccc(C(=O)Nc2ccccc2N2CCCC2)c1 | inconclusive [inhibitor, single point] |
| O=C(NC1CCCC1)C(c1ccccc1)N(Cc1ccccc1)C(=O)c1csnn1 (centres undefined) | inconclusive [inhibitor, single point] |
| COc1ccc(CN(C)C(=O)c2ccc(Oc3ccccc3)cc2)cc1F | inactive |
| O=C(Nc1ccccc1[N+](=O)[O-])c1nc[nH]c1C(=O)NCCO | inconclusive [inhibitor, full curve, poor fit] |
| O=c1cc(-c2ccccc2)[nH]n1-c1nc2ccccc2[nH]1 | inconclusive [inhibitor, single point] |
| C#CCn1c(=NC(=O)CSCC(=O)N2CCOCC2)sc2ccccc21 | inactive |
| C#CCOCCOCCOCCNc1nc(N2CCN(C(=O)CCCCCCCCCCNC(=O)Cn3cc(CCCCCN)nn3)CC2)nc(N2CCN(C(=O)CCCCCCCCCCNC(=O)[C@H]([C@@H](C)CC)n3cc(CCCCCN)nn3)CC2)n1 | active: 10.4 µM |
| CC(=O)Nc1cccc(NC(=O)CSc2nc3ccccc3o2)c1 | inactive |
| CCn1cc(Br)c(-c2nc3ccccc3c(=O)n2N)n1 | inactive |
| O=C(NCCCO)c1cc2c([nH]c3ccccc32)c(-c2ccccc2)n1 | inconclusive [inhibitor, single point] |
| CCNc1nc(NCC)n2c(SCC(=O)Nc3cc(OC)ccc3OC)nnc2n1 | inconclusive [inhibitor, partial curve, poor fit] |
| Cc1cccc(-n2c(SCC(=O)NCc3ccco3)nnc2-c2ccco2)c1 | inconclusive [inhibitor, partial curve, poor fit] |
| Cc1ccc2c(c1)sc1nc(=O)ccn12 | inactive |
| COc1cc(/C=C(/C#N)C(=O)NCCc2c[nH]c3ccccc23)ccc1OCc1ccccc1F | inconclusive [inhibitor, full curve, poor fit] |
